Source: the supplement of paper PMC12217912
Some of the results follow. The full chains were built here from the parent and the listed change. Values near 0.05 are background.

B1: TEV protease; numbered along this chain (parent)
chain: MGESLFKGPRDYNPISSSICHLTNESDGHTTSLYGIGFGPFIITNKHLFRRNNGTLVVQSLHGVFKVKDTTTLQQHLVDGRDMIIIRMPKDFPPFPQKLKFREPQREERICLVTTNFQTKSMSSMVSDTSCTFPSGDGIFWKHWIQTKDGQCGSPLVSTRDGFIVGIHSASNFTNTNNYFTSVPKNFMELLTNQEAQQWVSGWRLNADSVLWGGHKVFMVKPEEPFQPVKEATQL

Variants of: B1
Assay: raw area under fraction-flipped curve 0-4 h after induction (AUC4h, not background-subtracted), DNA-recorder readout of cleavage of the substrate (dimensionless); higher = more cleavage of the substrate by the protease variant
Conditions: temperature: 34 °C; time window: 0-4 h after rhamnose induction
Description: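 In vivo DNA recorder in E. coli TOP10(DE3) ΔrhaA at 34 °C. Each TEVp single-site mutant (parent TEVp 0) is paired with a single-site variant of the 7-mer TEVs (canonical ENLYFQ|S). The substrate sits between flexible linkers in a Bxb1-sfGFP-TEVs-SsrA fusion, so cleavage stabilises Bxb1 and speeds flipping of a recombination array, read by NGS. The value is the raw area under the fraction-flipped curve over 0-4 h after rhamnose induction (AUC4h), with ≥20 reads per time point. It is not background-subtracted; inactive controls average about 0.047.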
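Also: Bxb1 expression induced with 0.2% (w/v) L-rhamnose at OD600 near 0.5, cultures sampled hourly, flipped fraction per protease–substrate barcode pair counted by paired-end Illumina sequencing.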

Variant | area with substrate ENLYAQS | area with substrate ENLYEQS | area with substrate ENLYGQS | area with substrate ENLYHQS | area with substrate ENLYIQS | area with substrate ENLYNQS | area with substrate ENLYQQS | area with substrate ENLYTQS | area with substrate ENLYCQS | area with substrate ENLYDQS | area with substrate ENLYKQS | area with substrate ENLYLQS | area with substrate ENLYMQS | area with substrate ENLYPQS | area with substrate ENLYSQS | area with substrate ENLYVQS | area with substrate ENLYWQS | area with substrate ENLYYQS | area with substrate ENLYRQS
G35R | 0.0528 | 0.0441 | 0.0582 | 0.0333 | 0.0522 | 0.0444 | 0.032 | 0.047 |  |  |  |  |  |  |  |  |  |  | 
I36P | 0.0174 | 0.0474 | 0.0374 | 0.0371 | 0.0417 | 0.0398 | 0.046 | 0.0207 | 0.0434 | 0.0423 | 0.0311 | 0.0401 | 0.0418 | 0.0315 | 0.0334 | 0.0476 | 0.0428 | 0.0433 | 
G37Q | 0.0124 | 0.0631 |  | 0.0489 |  | 0.0534 | 0.0775 | 0.0593 |  | 0.0523 | 0.0609 | 0.0518 | 0.0646 |  |  | 0.0766 | 0.0558 |  | 0.05
P40M | 0.0777 | 0.0619 |  | 0.0679 |  | 0.0618 | 0.0429 | 0.0898 |  | 0.0708 |  |  | 0.0429 | 0.0676 | 0.0905 | 0.042 | 0.0607 | 0.0742 | 0.0583
F41D | 0.0576 | 0.0492 |  | 0.0528 | 0.103 | 0.0443 | 0.0677 | 0.0535 |  | 0.0497 | 0.0393 |  | 0.0543 |  | 0.0585 | 0.0896 | 0.0601 | 0.0593 | 
I42S | 0.0311 | 0.0519 | 0.0401 | 0.0387 |  | 0.0484 | 0.0462 | 0.057 | 0.0297 | 0.046 | 0.0421 |  | 0.0555 | 0.0267 | 0.0479 | 0.0492 | 0.045 | 0.0362 | 0.0542
T44R | 0.0641 | 0.0518 | 0.0414 | 0.041 | 0.0435 | 0.0454 | 0.0391 |  |  |  | 0.0233 |  | 0.048 | 0.0562 | 0.0436 | 0.034 | 0.0525 | 0.0631 | 0.0428
N45W | 0.0208 | 0.0721 | 0.0571 | 0.0604 | 0.0571 | 0.0613 | 0.0633 |  |  | 0.0689 | 0.0603 | 0.061 | 0.055 | 0.0628 | 0.0518 | 0.0623 | 0.0646 |  | 0.0666
H47G | 0.0529 | 0.0569 | 0.0618 | 0.0519 |  | 0.0543 | 0.0758 | 0.0588 |  | 0.0559 | 0.0662 | 0.0587 | 0.0531 | 0.069 | 0.0645 | 0.0147 | 0.0581 | 0.0658 | 0.0529
L48D | 0.0789 | 0.0611 | 0.0931 | 0.0574 | 0.0656 | 0.0432 | 0.0613 | 0.0415 |  | 0.0598 | 0.0239 |  | 0.0567 | 0.0558 | 0.0641 |  | 0.0572 | 0.0655 | 0.0515
L48Y | 0.0581 | 0.0725 | 0.0537 | 0.0552 | 0.0702 | 0.0629 |  | 0.0613 | 0.0797 |  |  |  | 0.052 | 0.0596 |  | 0.0459 |  | 0.0603 | 0.0659
R51I | 0.0654 | 0.0565 | 0.0548 | 0.0753 | 0.0939 | 0.0564 | 0.065 |  |  | 0.0228 | 0.0691 |  | 0.0724 | 0.0469 |  |  | 0.0694 |  | 0.0632
N52G | 0.0568 | 0.0625 | 0.065 | 0.0474 |  | 0.0571 | 0.0536 | 0.067 |  | 0.0912 | 0.0521 | 0.0677 | 0.067 | 0.0592 |  | 0.0816 | 0.0644 | 0.0476 | 0.0562
T55V | 0.0831 | 0.0409 | 0.0606 | 0.0713 | 0.129 | 0.0676 | 0.0528 | 0.0843 |  | 0.0636 | 0.0358 | 0.0922 |  | 0.025 | 0.0718 | 0.119 | 0.0776 | 0.06 | 0.0676
L56F | 0.0688 | 0.0323 | 0.0641 | 0.0641 | 0.106 | 0.0665 | 0.0622 | 0.0754 | 0.0554 | 0.0681 | 0.0457 | 0.0661 | 0.0646 | 0.0691 | 0.0636 | 0.0953 | 0.0627 | 0.0755 | 0.0897
L56G | 0.05 | 0.0526 | 0.0274 | 0.0538 |  | 0.048 | 0.0493 | 0.0499 |  | 0.0598 |  |  | 0.0459 | 0.037 |  |  | 0.0656 |  | 0.0561
V57R | 0.074 | 0.0666 | 0.0337 | 0.0766 |  | 0.078 | 0.053 | 0.0665 |  | 0.0433 |  |  |  | 0.0611 |  | 0.113 | 0.0762 | 0.0666 | 0.0549
L61C | 0.0769 | 0.0761 | 0.0838 | 0.0707 |  | 0.0688 | 0.0719 | 0.0804 |  | 0.0484 | 0.0563 | 0.0833 | 0.0835 | 0.0725 | 0.0657 | 0.113 | 0.0851 | 0.0723 | 0.0651
G63W | 0.0811 | 0.0563 | 0.0642 | 0.0578 |  | 0.0569 | 0.0593 | 0.0665 | 0.0822 | 0.0513 | 0.0543 | 0.0761 | 0.119 | 0.0728 | 0.08 | 0.0961 | 0.0547 | 0.0566 | 0.0667
V64A | 0.0794 | 0.0651 |  | 0.0724 | 0.133 |  |  |  |  | 0.067 |  |  | 0.0853 | 0.0751 |  |  | 0.078 | 0.0576 | 0.055
V64G | 0.05 | 0.0698 | 0.0591 | 0.0578 |  |  | 0.0651 |  |  |  | 0.0498 |  |  |  | 0.0648 |  | 0.0779 |  | 
K68R | 0.0785 |  | 0.0538 | 0.0725 | 0.134 | 0.0662 | 0.0667 | 0.072 | 0.0838 | 0.0669 |  |  | 0.0739 | 0.0587 | 0.0638 | 0.1 |  |  | 0.0445
D69G | 0.0832 | 0.0656 | 0.0662 | 0.061 |  |  | 0.0763 |  |  |  |  |  |  | 0.0609 |  | 0.0742 | 0.0721 |  | 0.0651
D69P | 0.0682 | 0.0739 | 0.0597 | 0.0614 | 0.123 | 0.0605 | 0.0673 | 0.0974 |  | 0.0627 | 0.0487 |  | 0.0578 | 0.0689 | 0.061 | 0.0975 | 0.0609 | 0.0621 | 0.0274
T72K | 0.0731 | 0.0648 | 0.0582 |  | 0.118 | 0.0632 | 0.0827 | 0.0851 | 0.0918 | 0.0576 | 0.0503 | 0.0758 | 0.0725 | 0.0729 | 0.0707 | 0.13 | 0.0901 | 0.0743 | 0.0451
